PubChem BioAssay AID1460 (National Center for Advancing Translational Sciences (NCATS), 2008)
The whole screen tested about 270,000 compounds, of which about 5,800 (2.1%) were called active. The shares of active, inactive and inconclusive entries below differ from those in the screen. Calls come from the whole dose curve; as a rule, active = well fitted inhibition curve with a large enough effect; inconclusive = small, poorly fitted or top-dose-only effect; inactive = flat fitted curve, though single readings scatter. Potencies beside an inconclusive call are fits to weak or partial responses and may not hold up.

What follows are compounds tested against Microtubule-associated protein tau (Homo sapiens) (UniProt P10636) (assay: qHTS for Inhibitors of Tau Fibril Formation, Thioflavin T Binding). Details: recombinant tau K18 P301L (four-repeat tau fragment), heparin-induced fibrillization, ThT fluorescence; series mostly up to 57.4 µM.
Chain of UniProt P10636 (P10636 whole entry, looked up, the tested form may be a part): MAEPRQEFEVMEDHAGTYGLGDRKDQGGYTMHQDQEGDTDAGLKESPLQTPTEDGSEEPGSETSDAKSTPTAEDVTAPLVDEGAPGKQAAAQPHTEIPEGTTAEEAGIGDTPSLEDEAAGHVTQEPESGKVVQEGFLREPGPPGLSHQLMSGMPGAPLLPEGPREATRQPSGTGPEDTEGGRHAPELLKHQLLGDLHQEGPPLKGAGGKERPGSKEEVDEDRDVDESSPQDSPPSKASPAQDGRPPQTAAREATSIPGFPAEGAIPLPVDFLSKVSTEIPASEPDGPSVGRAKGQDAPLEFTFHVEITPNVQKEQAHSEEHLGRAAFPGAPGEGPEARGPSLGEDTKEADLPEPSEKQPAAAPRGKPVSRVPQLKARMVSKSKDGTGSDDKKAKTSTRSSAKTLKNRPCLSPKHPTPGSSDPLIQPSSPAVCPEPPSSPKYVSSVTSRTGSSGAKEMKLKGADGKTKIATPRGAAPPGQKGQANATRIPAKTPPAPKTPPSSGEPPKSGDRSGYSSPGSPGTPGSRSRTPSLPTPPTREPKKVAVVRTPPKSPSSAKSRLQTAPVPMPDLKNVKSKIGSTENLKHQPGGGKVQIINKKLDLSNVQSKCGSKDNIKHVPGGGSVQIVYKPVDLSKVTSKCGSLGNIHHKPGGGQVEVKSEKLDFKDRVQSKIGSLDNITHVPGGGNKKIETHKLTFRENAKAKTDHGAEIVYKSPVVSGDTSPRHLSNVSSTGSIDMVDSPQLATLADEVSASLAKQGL
Summary of the method: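 In this qHTS, human K18 P301L tau is incubated with compound and heparin for 6 hr at 37 C, and Thioflavin T fluorescence then reports fibril load.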
Note: nearly all actives have a fitted effect of over 55% in size.
Potency is the fitted concentration of half-maximal effect; tags give direction and shape of the fitted curve.

| Structure (SMILES) | Potency |
| --- | --- |
| COc1cccc(NC2=NCC(=O)N2Cc2cccs2)c1 | inactive |
| CCCNC(=O)C(=O)Nc1ccc(N(C)C)cc1 | inconclusive: 20 µM [inhibitor, single point] |
| CCOc1ccc(CCNC(=O)c2ccc(Nc3nc4ccccc4n4nnnc34)cc2)cc1OCC | inconclusive: 0.251 µM [inhibitor, full curve, poor fit] |
| Cc1cc(Cl)ccc1N=c1ssnc1Cl | active: 14.1 µM |
| COc1ccc(OC)c(CCNC(=O)c2cc3c(s2)-c2c(C)cccc2OC3)c1 | inconclusive: 0.794 µM [inhibitor, full curve] |
| O=C(Nc1ccccc1N1CCN(c2ccccc2)CC1)c1ccccc1F | inconclusive: 8.91 µM [inhibitor, partial curve] |
| Cc1ccc(NC(=O)Cn2c(=O)n(Cc3ccccc3)c(=O)c3sc4ccccc4c32)cc1 | inactive |
| Cc1ccccc1Oc1nc2c(C)cccn2c(=O)c1/C=C(\C#N)C(=O)NC1CCS(=O)(=O)C1 (configuration not stated) | inconclusive: 39.8 µM [inhibitor, single point] |
| CCOC(=O)C1(CCCc2ccccc2)CCN(C2CCN(C(C)=O)CC2)CC1 | inactive |
| O=C(CSc1nnc2n1CCCN2)c1ccc([N+](=O)[O-])cc1 | inconclusive: 25.1 µM [inhibitor, partial curve] |
| O=C1Nc2ccccc2S/C1=C/NCc1ccccc1Cl | inconclusive: 22.4 µM [inhibitor, partial curve] |
| Cc1ccc(Nc2c(-c3c[nH]c4ccccc34)nc3ccccn23)cc1 | inconclusive: 5.62 µM [inhibitor, full curve, poor fit] |
| Cc1ccc2oc(=O)c3cnn(CC(=O)N4CCN(c5ccc(F)cc5)CC4)c3c2c1 | inconclusive: 8.91 µM [inhibitor, partial curve] |
| COc1cc(-c2nc3ccc(C)cn3c2Nc2ccc3c(c2)OCCO3)ccc1O | inconclusive: 15.8 µM [inhibitor, partial curve] |
| O=C(COC(=O)CCc1nc2ccccc2s1)NC(=O)NCc1ccco1 | inconclusive: 22.4 µM [inhibitor, single point] |
| CCOC(=O)c1ccc(NC(=O)/C=C/c2cccs2)cc1 | inconclusive: 31.6 µM [activator, single point] |
| C/C(N)=C(/C#N)C(=O)CSc1ncnc2ccccc12 | inconclusive: 14.1 µM [inhibitor, partial curve] |
| Cc1ccc(/C(N)=N/OC(=O)c2ccc3c(c2)OCO3)cc1 | inconclusive: 7.94 µM [inhibitor, partial curve] |
| CCOC(=O)C(CC)n1nnc2sc(-c3ccccc3)cc2c1=O (configuration not stated) | inconclusive: 31.6 µM [inhibitor, single point] |
| CCc1ccccc1NC(=O)CSc1nncn2c1cc1oc(C)cc12 | inconclusive: 12.6 µM [inhibitor, partial curve] |
| CCOc1ccc(NC(=O)CSc2cn(CCNC(=O)c3ccccc3F)c3ccccc23)cc1 | inconclusive: 3.55 µM [inhibitor, full curve, poor fit] |

| Structure (SMILES) | Potency |
| --- | --- |
| Cc1ccc(NC(=O)c2ccc(CSc3ccccn3)cc2)c(O)c1 | inconclusive: 3.98 µM [inhibitor, partial curve] |
| CCOc1ccc2[nH]c(=O)c(CN(Cc3ccco3)C(=O)c3ccc(Br)cc3)cc2c1 | inconclusive: 15.8 µM [inhibitor, partial curve] |
| COC(=O)c1ccc(Cl)cc1NC(=O)Nc1nnc(N2CCCC2)s1 | inactive |
| CCOC(=O)c1c(NC(=O)C(C)Sc2cccc[n+]2[O-])sc2c1CCN(Cc1ccccc1)C2 (configuration not stated) | inconclusive: 28.2 µM [inhibitor, single point] |
| Oc1ccc(O)c(Cc2nc3ccccc3[nH]2)c1 | inconclusive: 25.1 µM [inhibitor, partial curve] |
| COc1cccc2cc(/C(C)=N/NC(=O)c3ccco3)oc12 | inconclusive: 25.1 µM [inhibitor, single point] |
| CC1=[N+](CC(=O)c2ccccc2)CCn2cccc21 | inconclusive: 12.6 µM [inhibitor, partial curve] |
| CCOc1ccc(NC(=O)c2c(Nc3ccccc3C)sc(C(=O)c3ccccc3)c2N)cc1 | inconclusive: 12.6 µM [inhibitor, partial curve] |
| Cc1ccc(N=Nc2c(O)c3ccccc3[nH]c2=O)c(S(=O)(=O)N(C)C)c1 | inconclusive: 14.1 µM [inhibitor, partial curve] |
| CC(=O)c1c(O)ccc2c(-c3ccccc3)cc(=O)oc12 | inactive |
| CCCN(c1c(C)n(C)n(-c2ccccc2)c1=O)S(=O)(=O)c1ccc(C)cc1 | inactive |
| CCc1ccc2c(c1)c1nc(C)sc1n2CC(=O)OC | inconclusive: 35.5 µM [inhibitor, partial curve] |
| Cc1ccc(OCc2nc(-c3ccccc3)no2)c(C)c1 | inconclusive: 25.1 µM [inhibitor, single point] |
| CC(C)n1c(=O)[nH][nH]c1=S | active: 28.2 µM |
| CCN(c1cccc(C)c1)S(=O)(=O)c1cc(Br)cc2c1N(C(C)=O)C(C)C2 (configuration not stated) | inconclusive: 14.1 µM [inhibitor, partial curve] |
| CC(C)c1ccc(CN2CCC(C(=O)NCc3cccnc3)CC2)cc1 | inactive |
| COC(=O)CCSCC(=O)N1N=C(c2ccc(Br)cc2)CC1c1cccc(OC)c1OC (configuration not stated) | inconclusive: 20 µM [inhibitor, single point] |
| Cn1c(N)c(C(=O)COC(=O)COc2ccc3ccccc3c2)c(=O)n(C)c1=O | inconclusive: 15.8 µM [inhibitor, partial curve, poor fit] |
| COc1cccc(NC(=O)CN2C(=O)c3cccc4cccc2c34)c1 | inconclusive: 0.794 µM [inhibitor, single point] |
| O=c1c2ccccc2c(C=Nc2ccc(S(=O)(=O)N3CCCCC3)cc2)c(O)n1-c1ccc(Cl)cn1 | inactive |
| COc1ccc(NC(=O)c2c(C)oc3ccc(O)c(CN4CCC(C)CC4)c23)cc1Cl | inconclusive: 5.01 µM [inhibitor, partial curve] |
